Here are results for 40 molecules from PubChem BioAssay AID1347044 (National Center for Advancing Translational Sciences (NCATS), 2019).

The list shows a part of the results. These are further read-outs of the screen, such as a control signal, another cell line or another target. No call is given for them. Compounds called inactive in the main read-out are mostly missing here. Words in brackets tell the shape of the fitted curve; partial curves, single points and poor fits give uncertain potencies.
Tags give direction and shape of the fitted curve.

The experiment can be described thus: Natriuretic polypeptide receptor (hNpr1) antagonism - Confirmation. Note: nearly all actives have a fitted effect of over 70% in size. The note with it: HEK293 hNpr1 cGMP GloSensor luminescence, ANP-stimulated; measured here: HEK-hNpr1 cytotoxicity, CellTiter-Glo. Put shortly:
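HEK293 cells expressing hNpr1 and the pGS-40F GloSensor cGMP sensor, loaded with 2% GloSensor reagent for 2 h, then treated 30 min with compound at room temperature. Luciferase luminescence read before and 20 min after 0.1 nM hNppA stimulation.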
In general terms: In ATP-based viability assays light output follows the ATP content of the culture.
In general, CC50 refers to the concentration giving 50% cytotoxicity. The low end stands for harm at low concentration, the high end for better tolerance by the cells. `COc1ccc(CN2C[C@@H]3C(=O)N(Cc4ccc5c(c4)OCO5)C(=O)[C@@H]3C2)cc1OC`: the CC50 was 21.7 µM [falling, partial curve]. Under `CCOc1ccc(C(=O)N2CCC3(CC2)N=C(c2ccc(Cl)cc2)NO3)cc1` stands 19.3 µM [falling, partial curve]; under `COC(=O)c1ccc2nc(CO[C@H]3CN(Cc4ccc(Cl)cc4)C[C@H]3F)[nH]c2c1`, 35.3 µM [falling, partial curve]; under `Cc1cc(C(=O)N2CCC3(CC2)CC(N(Cc2ccc(F)cc2)C2CC2)CCO3)n(C)n1` (stereo not given), 21.7 µM [falling, partial curve]. For `Cc1cnccc1CN(C)C(=O)c1cc(COc2ccc(-n3cncn3)cc2)on1` the value was 17.2 µM [falling, partial curve].

Turning to `O=C(c1ccccc1)N1CCc2sc(C(=O)N3CCN(c4ccccc4)CC3)cc2C1`, the CC50 is 24.3 µM [falling, partial curve].

On to `Cc1ncnc(N2CCC3(CC2)CC(=O)N(CCCc2ccccc2)C3)c1C`, for which the CC50 was 6.11 µM [falling, full curve]. For `O=C(c1cccc2[nH]ccc12)N1CCCC(n2cc(-c3nc(C4CC4)no3)nn2)C1` (stereo not given) the value was 24.3 µM [falling, partial curve]. For `COc1ccc2nc3n(c2c1)[C@@H](CNCc1ccc2c(c1)OCO2)COC3` the value was 35.3 µM [falling, partial curve]. For the molecule `CC(C)Cc1cn(CC2CCCN(C(=O)c3n[nH]c4c3CCCC4)C2)nn1` (stereo not given), the half-maximal cytotoxic concentration (CC50) was 17.2 µM [falling, partial curve]. Take `O=C(COc1ccc(F)cc1)N1CCC(Oc2ccc(-c3noc(C4CC4)n3)cc2)C1` (stereo not given): the CC50 was 43.2 µM [falling, single point]. For `CCc1noc(CC2CCOC3(CCN(S(=O)(=O)c4ccc(F)c(F)c4)CC3)C2)n1` (stereo not given) the value was 27.3 µM [falling, single point]; for `CCn1cc(-c2ccc(C)cc2)cc1C(=O)N1CCN(c2ccccn2)CC1`, 24.3 µM [falling, partial curve]; for `COc1ccc(C2Cn3nnc(C(=O)N4CCN(C(=O)c5sccc5C)CC4)c3CO2)cc1` (stereo not given), 21.7 µM [falling, partial curve]. For `Cc1cc(Cl)ccc1-c1ccc(CNC2CN(C(=O)OC(C)(C)C)C2)cc1` the value was 30.6 µM [falling, single point]; for `CC(C)c1noc(CC2CCN(C(=O)c3ccc(F)cc3)CC2)n1`, 43.2 µM [falling, single point]. Under `O=C(CC1CCCCC1)N1CCC(Cc2nc(-c3ccccc3)no2)CC1` stands 21.7 µM [falling, partial curve]; under `COc1ccc(CCNC(=O)CC(c2cccc(F)c2)c2cn(C)c3ccccc23)cc1OC` (stereo not given), 21.7 µM [falling, partial curve]; under `COc1ccc(-c2noc(CC3CCN(C(=O)c4ccc(OC)c(OC)c4)CC3)n2)cc1`, 7.69 µM [falling, partial curve].

Regarding `Cc1noc(-c2ccc(OC3CN(C(=O)NCc4ccc(F)cc4)C3)cc2)n1`, the CC50 was 21.7 µM [falling, partial curve, poor fit].

`O=C(c1cc(F)ccc1F)N1CCC(Cc2nc(-c3ccccc3)no2)CC1`: the CC50 is 12.2 µM [falling, partial curve].

Turning to `CCOc1ccccc1C(=O)N1CCc2[nH]nc(C(=O)NCCCc3ccccc3)c2C1`, the CC50 is 30.6 µM [falling, single point]. Consider `OCC1(CCOc2ccccc2)CCCN(c2ncnc3sccc23)C1` (stereo not given), for which the CC50 was 5.44 µM [falling, full curve].

Regarding `COc1ccccc1CC(=O)N1CCN(C(=O)c2nnn3c2COC(c2ccc(C)cc2)C3)CC1` (stereo not given), the CC50 is 19.3 µM [falling, partial curve]. Take `CC(=O)N1CCC(Cc2ccc(C(=O)NC3CCN(Cc4ccccc4)CC3)cc2)CC1`: the CC50 was 21.7 µM [falling, partial curve]. Take `Cc1cc(C(=O)NC(C)c2cnc(N3CCCCCCC3)nc2C)n[nH]1` (stereo not given): the CC50 is 30.6 µM [falling, single point]. `OC1(Cc2cc(-c3ccccc3)no2)CCN(c2ncncn2)CC1`: the CC50 is 17.2 µM [falling, partial curve].

Consider `Cc1ccc2c(c1)nc1n2[C@@H](CNS(=O)(=O)c2ccccc2)COC1`, for which the CC50 is 35.3 µM [falling, partial curve]. For `CCOc1ccccc1C(=O)N1CCC(n2cc(-c3nc(-c4ccccc4)no3)nn2)CC1`, the 50% cytotoxic concentration (CC50) is 24.3 µM [falling, partial curve].

Consider `O=C(NC1CCCCCCC1)c1nnn2c1COC(c1ccc(F)cc1)C2` (stereo not given), for which the CC50 is 24.3 µM [falling, partial curve, poor fit]. Regarding `Cc1ccc(SCCN(C)c2cc(C3CC(O)C3)nc(N)n2)cc1` (stereo not given), the CC50 is 30.6 µM [falling, single point].

With `C[S+](=O)([O-])CCn1ncc2cc(OCC3CCN(C(=O)OC4CCCC4)CC3)ccc21`, the CC50 is 15.3 µM [falling, partial curve]. Take `COCCN1C(=O)CO[C@H]2CN(CCCc3ccccc3)C[C@H]21`: the 50% cytotoxic concentration (CC50) is 22.2 µM [falling, partial curve]. Under `COc1ccccc1CC(=O)N1CCC(Cc2nc(-c3ccc(F)cc3)no2)CC1` stands 3.43 µM [falling, full curve]; under `COc1ccc(CN2CCc3nc(C(=O)Nc4ccc(Cl)cc4)oc3CC2)cc1OC`, 17.2 µM [falling, partial curve]. For `COc1ccc(-n2nc(C)c([C@@H]3C=C[C@@H](NS(=O)(=O)c4cccs4)C3)c2C)cc1`, the CC50 was 31.4 µM [falling, partial curve]. For `Cc1nn2c(c1-c1ccccc1Oc1ccccc1)N(Cc1cccc(O)c1)CCC2` the value was 62.7 µM [falling, single point]. Under `O=C(c1cccc2[nH]ccc12)N1CCC2(CC1)N=C(c1ccc(Cl)cc1)NO2` stands 21.7 µM [falling, partial curve]; under `O=C(c1ccc(F)cc1Cl)N1CCC(Cc2nc(-c3ccccc3)no2)CC1`, 6.11 µM [falling, full curve]; under `O=C(Nc1ccc(Oc2ccccc2)cc1)O[C@@H]1CO[C@H]2[C@@H]1OC[C@@H]2NC(=S)Nc1ccccc1`, 15.3 µM [falling, partial curve].
